Results from article PMC6919601, “Identification of Plasmodium dipeptidyl aminopeptidase allosteric inhibitors by high throughput screening” (PLoS ONE, 2019).
Hit rate of the full screen: of about 110,000 compounds, about 230 (0.21%) showed an effect of 50% or more. The list shows a part of the results.

target: DPAP1 (Plasmodium falciparum, UniProt Q8IIJ9); assay: primary screen, percent inhibition; read by cleavage of a fluorogenic dipeptide substrate; higher = more effect of the substance; parameters: species or system P. falciparum D10 trophozoite lysates; single well
Sequence (Q8IIJ9 whole entry, looked up): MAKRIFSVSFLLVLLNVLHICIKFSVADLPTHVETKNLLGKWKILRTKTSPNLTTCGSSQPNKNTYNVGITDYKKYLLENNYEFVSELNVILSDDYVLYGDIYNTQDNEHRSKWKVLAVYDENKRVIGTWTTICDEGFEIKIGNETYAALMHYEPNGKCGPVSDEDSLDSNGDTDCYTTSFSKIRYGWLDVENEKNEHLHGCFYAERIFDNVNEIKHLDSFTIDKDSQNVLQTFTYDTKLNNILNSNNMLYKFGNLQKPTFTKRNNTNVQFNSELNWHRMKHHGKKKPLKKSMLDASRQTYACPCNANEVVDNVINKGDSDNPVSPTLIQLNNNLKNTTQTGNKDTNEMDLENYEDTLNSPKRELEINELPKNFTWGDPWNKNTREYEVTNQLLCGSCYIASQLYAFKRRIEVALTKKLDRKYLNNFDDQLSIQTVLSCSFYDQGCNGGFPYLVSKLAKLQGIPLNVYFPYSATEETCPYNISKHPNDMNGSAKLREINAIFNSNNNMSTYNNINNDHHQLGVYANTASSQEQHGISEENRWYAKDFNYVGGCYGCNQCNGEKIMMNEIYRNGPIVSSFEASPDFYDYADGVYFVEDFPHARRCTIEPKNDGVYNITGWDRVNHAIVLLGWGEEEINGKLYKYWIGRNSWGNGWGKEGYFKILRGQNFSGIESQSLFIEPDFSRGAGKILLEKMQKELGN
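Note: 30 min substrate incubation versus DMSO and 10 µM JCP410 controls.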

SMILES | % Inhibition @ 10 uM
Cc1cccn2c(=O)c(/C=C(\C#N)S(=O)(=O)c3ccccc3)c(Oc3ccccc3)nc12 | -3.23%
O=S(=O)(c1ccc(F)cc1)N1CCN(c2ncccn2)CC1 | 1.7%
COc1cccc(C(=O)Nc2c3c(nc4ccccc24)CCCC3)c1 | -3.23%
CC(C)C[C@H](NC(=O)c1cccc(-c2ccccn2)c1)C(=O)NCC#N | 2.87%
COc1ccc(N2C(=O)CC(N3CCN(CCO)CC3)C2=O)cc1 (centres unmarked) | -9.49%
Clc1nc(Nc2cccc3ccccc23)nc(N2CCOCC2)n1 | -2.51%
CCN1CCC(C#N)(NC(=O)[C@H](C[C@H](C)c2ccccc2)NC(=O)c2ccc(-c3cc(C(=O)O)ccc3Cl)cc2)CC1 | -0.207%
Cn1c(=O)c2c(-c3ccc(Cl)cc3)n(C3CCCCC3)cc2n(C)c1=O | 5.17%
Cc1ccc(/C=C(\C#N)c2nc(-c3ccc(Cl)cc3)cs2)cc1 | 1.41%
CN(C)CC(=O)N1c2ccccc2CCc2ccc(NC(=O)c3ccccc3)cc21 | 0.774%
N#Cc1ccccc1NC(=O)COc1ccc2ccccc2c1 | -4.03%
CC1CCN(C(=O)CN(c2ccccc2Br)S(C)(=O)=O)CC1 | 5.53%
CCOc1nc(-c2cccc(OC)c2)ccc1-c1noc(-c2cccnc2)n1 | -5%
O=C(Nc1cc(C(F)(F)F)ccc1Cl)c1cccc(NC(=O)C(F)(F)F)c1 | 4.44%
CC(=O)OCC(=O)C1(O)CCC2C3CC=C4CC(O)CCC4(C)C3CCC21C (centres unmarked) | -0.0953%
Cc1cc2ccccc2n1CCNC(=O)c1ccc(S(=O)(=O)N2CCOCC2)cc1 | -8.2%
CCCCCCC1C(=O)NC(=S)NC1=O | 28.5%
NC(=O)CSc1nc2nccnc2c(=O)n1CCc1ccccc1 | 0.813%
CSc1nc2c(c(=O)n(C)c(=O)n2C)n1Cc1ccccc1Cl | 4%
Cc1ccccc1CN1CCCNC1=O | 4.23%
C=CCn1c(SCC(=O)NCCN2CCOCC2)nc2sc3c(c2c1=O)CCC3 | -4.4%
Cc1nc2ccccc2n1Cc1cccc2ccccc12 | 2.92%

SMILES | % Inhibition @ 10 uM
COC(=O)c1sc(NC(=O)C2CCCC2)c(C(=O)OC)c1C | -7.78%
Cc1ccc(C2=NN(C(=O)CCC(=O)O)C(c3ccccc3F)C2)cc1 (centres unmarked) | -4.59%
c1ccc(N2CCN(Cc3cccc4ccccc34)CC2)nc1 | -1.29%
O=C(Cc1coc2ccc3ccccc3c12)Nc1ccccc1F | -3.26%
O=S(=O)(NCC1CCCO1)c1cc(Br)c(Br)s1 (centres unmarked) | 1.2%
CCCCc1nc(S(=O)(=O)c2ccc(C)cc2)c(N2CCOCC2)o1 | 1.37%
Cn1c(/C=C/c2ccco2)nc2ccccc21 | 4.25%
CC(Cc1cccc(C(F)(F)F)c1)NCCN1CCOCC1 (centres unmarked) | -5.31%
Cn1c(=O)c2c(nc(CN(Cc3ccccc3)Cc3ccccc3)n2CCCO)n(C)c1=O | -3.23%
Cc1ccc(C2C(C#N)=C(N)SC(N)=C2C#N)s1 | 55.8%
COc1ccc(C(=O)Nc2ccccc2-c2ccccc2)cc1 | -6.27%
O=C(O)C1CCCN(c2nn3cc(-c4ccc(F)cc4)nc3s2)C1 (centres unmarked) | -3.34%
CC(C)Oc1ccc(-c2ccc(OC(C)C)cc2)cc1 | -0.902%
COc1ccccc1N1CCN(C(=O)CCCOc2ccc(Cl)cc2Cl)CC1 | -3.77%
Cc1ccccc1NS(=O)(=O)c1ccc(-c2ccc(S(=O)(=O)Nc3ccccc3C)cc2)cc1 | -2.55%
O=C(C1CCC(CNS(=O)(=O)c2ccccc2)CC1)N1CCOCC1 (centres unmarked) | -4.53%
Cc1cc(NC(=O)CSc2nc3c(cc2C#N)CCCC3)no1 | 1.03%
CCOc1cc(-c2nc(-c3cc4ccccc4nc3OC)no2)cc(OCC)c1OCC | -4.19%
C=CCSc1nc2c(c(-c3ccc(C)o3)c1C#N)CCCC2 | 13.6%
O=c1c2ccccc2nc(C(Cl)(Cl)Cl)n1-c1ccccc1 | -17.2%
CCCCCCn1c(=O)c2c(nc(CN(CC)CC)n2C)n(C)c1=O | -1.44%
COc1cc(NS(=O)(=O)c2ccc(NC(=O)c3ccc(-c4ccccc4)cc3)cc2)nc(OC)n1 | -10.9%

SMILES | % Inhibition @ 10 uM
COc1ccc(C2Oc3c(OC)cccc3C3CC(c4cc(C)ccc4O)=NN32)cc1O (centres unmarked) | 4.97%
CC(C)NC(=O)C(C)N1Cc2ccccc2C1=O (centres unmarked) | -2.69%
COC(=O)C1=C(C)N=C2SCCC(=O)N2C1c1cccc(Oc2ccccc2)c1 (centres unmarked) | -1.17%
CC(=O)c1c(C)nc(-c2ccc(Cl)cc2)nc1NC(=O)c1ccccc1 | 3.25%
COc1ccc(C(=O)Nc2sc3c(c2C#N)CCC(C)C3)cc1 (centres unmarked) | -2.07%
CCc1nc2c(C)cc(C)cc2c(N)c1C | -1.32%
O=C(NCCc1ccc(Cl)cc1)C(Cc1ccccc1)N1Cc2ccccc2C1=O (centres unmarked) | -1.58%
Cc1cc(O)nc(SCc2cn3c(C)cc(C)nc3n2)n1 | 1.72%
O=C(NCC1OCCc2ccccc21)c1ccco1 (centres unmarked) | -3.29%
C#CCn1nc(-c2ccccc2)ccc1=O | -0.946%
COc1cc(C2(c3ccc(O)c(OC)c3)C(=O)N(C)c3ccc(C)cc32)ccc1O | -0.69%
CC(C)=CCCC1(C)OC(=O)N(CCOC23CC4CC(CC(C4)C2)C3)C1(C)O (centres unmarked) | -5.63%
COc1ccc(CC(C)N2CCCC(O)C2)cc1OC (centres unmarked) | 0.217%
Cc1cc(C)nc(SCC(=O)c2ccc(O)cc2O)n1 | -0.687%
O=C1NC(=O)/C(=C\c2c(F)cccc2Cl)N1 | -5.63%
CCOc1ccc(C2c3c(-c4ccccc4O)n[nH]c3C(=O)N2CCOC)cc1 (centres unmarked) | 8.13%
O=C(c1ccc(F)cc1)N1N=C(c2cccs2)CC1c1ccccc1 (centres unmarked) | 0.161%
O=C(CSc1nc(O)cc(-c2ccccc2)n1)NCc1cccs1 | -1.6%
Cc1ccc(SCCC(=O)N2CCC(C)CC2)cc1 | 3.49%
CC1=CC(C)(C)NC(=S)N1c1ccc(Br)c(C)c1 | -0.969%
CCOc1ccc2cc(C3CC(c4ccc(C)cc4)=NN3C(C)=O)c(Cl)nc2c1 (centres unmarked) | -1.47%
